Experimental findings from ChEMBL document CHEMBL4888484, “Replenishing the malaria drug discovery pipeline: Screening and hit evaluation of the MMV Hit Generation Library 1 (HGL1) against asexual blood stage Plasmodium falciparum ,using a nano luciferase reporter read-out” (2022) are described below.

In all, about 150,000 compounds went through this assay and about 540 (0.36%) showed an effect of 50% or more. The list shows a part of the results.

The experiment relates to Plasmodium falciparum. The experiment in a line: Primary screen in NF54 nanoGlo assay, in single point, at 2uM, 72h; a lower Z score goes with more inhibition. The experiment is classed as functional, Erythrocyte. As to conditions: timepoint 72 hour.
In general, % Inhibition refers to the relative decrease from the control value, in per cent. As for `Cn1ccnc(NCCc2c[nH]c3ccc(Br)cc23)c1=O`, the “% Inhibition” value came out at 0% and the Z score is listed as 0.07.
For the compound `N#Cc1nc(C2CC2)oc1N1CCN(C(=O)CN2CCCC2=O)CC1`, the “% Inhibition” value was -42% and the Z score was 4.92.
The matching figures for `O=C(CCn1cc(Cl)cn1)N1CCC(CN2CCCC2=O)CC1`: -11% and 2.35.
The matching figures for `CC(C)C(NC(=O)c1ccc(Br)cc1)C(C)C`: -4% and 0.53.
The like results for `Cc1ncsc1CCN(C)Cc1ccc([C@@H]2CCCCO2)s1` were, in that order, 6% and -0.66.
Turning to `CC(C)Cn1ncnc1CN[C@@H](C)c1cc2ccccc2o1`, the “% Inhibition” value is reported as -10% and the Z score is 1.61.
The like results for `CCN(CC)c1ncc(CN2CCC(O)(C(F)(F)F)CC2)s1` were, in that order, -14% and 2.56.
The like results for `COc1ccccc1C1(CNC(=O)c2cc(C(=O)O)co2)CCC1` were, in that order, 28% and -3.14.
The matching figures for `CCOC(=O)c1cnc2c(c(C)nn2C)c1N1CCCN(c2nc(C)ns2)CC1`: 1% and -0.09.
In the case of `CC(C)OCCCNc1cc(C(F)(F)F)cnn1`, the “% Inhibition” value is on record as -1% and the Z score came to 0.06.
The like results for `O=C(Cc1cccc2ccccc12)N1C[C@@H](CN2CCCCCC2)[C@@H](CO)C1` were, in that order, -9% and 1.32.
Turning to `Cn1ccnc1[C@@H](NC(=O)c1[nH]ccc1C1CC1)C(C)(C)CO`, the “% Inhibition” value is on record as -7% and the Z score turned out to be 0.88.
With `CC1c2ccccc2CN1C(=O)NC1CC(=O)N(C(C)(C)C)C1` (stereo unspecified), the “% Inhibition” value is on record as -3% and the Z score came to 0.54.
The matching figures for `CCc1nn(-c2ccc(OC)cc2)c(Oc2ccc(F)cc2F)c1CN(CCOC)C(=O)C1CCC1`: 2% and -0.26.
The matching figures for `CCc1noc(CC)c1CNC(=O)N[C@H](c1ccccn1)C(C)C`: -10% and 0.98.
The like results for `O=C(N1CCC[C@@]2(CCNC2)C1)C1(c2ccccc2)CCCC1` were, in that order, 1% and -0.13.
As to `CCOC(=O)c1cc(-c2ccc(C(=O)N[C@H]3CCOC3)cc2)c(C)[nH]1`, the “% Inhibition” value is 6% and the Z score was -1.26.
The matching figures for `CCCn1nnnc1CN1CCOC[C@H]1c1ccc(CC)o1`: -4% and 0.54.
The like results for `Cc1cc(CN2CCC(C(=O)Nc3ccccc3)CC2)nc(N(C)C)n1` were, in that order, 0% and 0.05.
Turning to `COc1ccc(C2N[C@H](C(=O)O)Cc3c2[nH]c2ccccc32)cc1` (stereo partly specified), the “% Inhibition” value was -14% and the Z score was 2.25.
The matching figures for `O=C(CCn1cnc2ccccc2c1=O)N(CC(F)F)c1ccc(F)cc1`: -7% and 1.08.
The like results for `O=C1CC[C@]2(C(=O)NCc3ccncc3)CCC=C2N1C1CCCC1` were, in that order, -14% and 1.34.
The like results for `CCN(CC)C(=O)c1cc(C[C@H](C)c2ccccc2)no1` were, in that order, -4% and 0.6.
Turning to `CCCOC(=O)[C@H]1CC(=O)N(c2cn[nH]c2)C1`, the “% Inhibition” value is reported as 30% and the Z score was -3.44.
The matching figures for `O=C1NCCN1CCS(=O)(=O)Cc1ccn(-c2ccccc2)n1`: -7% and 1.45.
For `Cc1nccc(C(=O)N(c2nc3ccccc3o2)C2CC2)n1`, the “% Inhibition” value is -2% and the Z score is recorded as 0.32.
The matching figures for `Cc1ccccc1N1C(=O)CN(S(=O)(=O)c2ccccc2)C[C@@]1(C)C(=O)NC1CCCC1`: 6% and -1.1.
The like results for `COC[C@H](CC(C)C)OC(=O)c1ccn(C(C)C)n1` were, in that order, 6% and -1.05.
The like results for `Cc1ccc(N2CCCC2)c(C(=O)N2CCc3cnccc32)c1` were, in that order, 0% and -0.04.
For the compound `Cc1nn(Cc2ccc(F)cc2)c2[nH]nc(NC(=O)[C@H]3CCOC3)c12`, the “% Inhibition” value is listed as -3% and the Z score is 0.4.
The matching figures for `CO[C@@H]1COC[C@H]1n1cc(CNC(=O)N2CC(C)OCC2C)nn1` (stereo partly specified): -5% and 0.97.
Turning to `Cc1noc(C2CCC(N[C@@H](C)c3csnn3)CC2)n1` (stereo partly specified), the “% Inhibition” value is reported as -1% and the Z score amounted to 0.27.
The like results for `O=S(=O)(C1CC1)N1CCC[C@H]1Cn1cc(C2CC2)nn1` were, in that order, -9% and 1.7.
The matching figures for `CC(C)n1nccc1NC(=O)CCc1ccsc1`: -12% and 2.29.
For `C[C@H]1CCCCN1CCNC(=O)c1c2c(nc3ccccc13)C(=O)N(C1CCCCC1)C2`, the “% Inhibition” value is given as -9% and the Z score came out at 1.03.
The matching figures for `COCCn1cnnc1CNC(=O)c1cccc(-c2cn[nH]c2C2CC2)c1`: 2% and -0.28.
As to `O=C(NCc1ccnc(-c2cccs2)c1)[C@H]1CCOC1`, the “% Inhibition” value is 10% and the Z score was -1.53.
With `CCN(Cc1nnc(C)o1)c1ccc(F)cc1`, the “% Inhibition” value is given as -9% and the Z score was 1.05.
For the compound `O=c1c2cnccc2ncn1Cc1c(F)cccc1F`, the “% Inhibition” value came to 0% and the Z score is -0.05.
For the compound `CCNC(=O)N1CC[C@H](NS(=O)(=O)c2cccnc2C#N)C1`, the “% Inhibition” value came out at 4% and the Z score is -0.52.
The matching figures for `CCc1ccc(C2=C[C@@H](c3cccc(OC)c3)n3ncc(C(=O)Nc4ccc(C)cc4)c3N2)cc1`: 60% and -5.98.
The like results for `Cc1ccc(NC(=O)CN2C(=O)NC3(CCS(=O)(=O)CC3)C2=O)cc1C` were, in that order, -5% and 0.91.
The like results for `CC(C)NC(=O)N(CCN1CCOCC1)CC(=O)N1N=C(c2ccc(F)cc2)C[C@H]1c1ccccc1F` were, in that order, -6% and 0.88.
In the case of `O=C(CN1C(=O)[C@@H]2CCCCN2C(=O)c2ccccc21)NCC1CCCCC1`, the “% Inhibition” value is -9% and the Z score was 1.36.
The like results for `COc1cc(CNS(=O)(=O)c2cc3c(cc2Br)NC(=O)CC3)ccn1` were, in that order, -7% and 1.41.
`Cc1cccc2c(N3CCN(Cc4cccnc4)CC3)c(C#N)cnc12`: the “% Inhibition” value is given as -9% and the Z score is recorded as 1.2.
On to `CC(C)(C)c1cc2c(N3CCC[C@@](O)(C(N)=O)C3)nccn2n1`, for which the “% Inhibition” value is given as 5% and the Z score was -0.64.
The like results for `Cc1cnc(-n2ncc(C(=O)N3CCCC3)c2C)nc1-c1cccs1` were, in that order, -12% and 1.56.
As for `O=C(NC1CCCCCC1)C1CCN(S(=O)(=O)N2CCCCC2)CC1`, the “% Inhibition” value is given as 1% and the Z score is given as -0.23.
The like results for `Cc1cc(Cl)ccc1OCC(=O)NCCOc1nc(N(C)C)nc(N2CCOCC2)n1` were, in that order, 4% and -0.72.
The matching figures for `CC(C)[C@H]1CN(CC(=O)N2CCOCC2)C[C@@H]1Nc1ncccc1C#N`: 1% and -0.21.
The matching figures for `COc1ccc(N2CCN(CN3C(=O)c4cc(Cl)c(Cl)cc4C3=O)CC2)cc1`: -7% and 1.45.
With `CO[C@@]1(C)CCCN(C(=O)NCC2(CF)CCOCC2)CC1`, the “% Inhibition” value is given as 1% and the Z score was -0.12.
The like results for `O=C1CCc2cc(F)cc(NC(=O)NCc3n[nH]c4c3CCC4)c2N1` were, in that order, -8% and 1.03.
As to `O=C(NC[C@H]1OC[C@@H](NCc2ccccn2)[C@@H]1O)C1CCCC1`, the “% Inhibition” value came out at 12% and the Z score was -1.41.
The like results for `Cc1nccn1[C@H]1[C@@H]2OC[C@@H](O2)[C@@H](NCc2ccccc2)[C@@H]1O` were, in that order, -7% and 0.91.
For `CC1(C)NC(=O)N(Cc2cccc3ccccc23)C1=O`, the “% Inhibition” value is -6% and the Z score was found to be 0.55.
The matching figures for `CN(C(=O)c1cccn1C)C1CCCCC1`: 0% and -0.04.
The like results for `O=C(NC[C@H]1CN(c2ccccc2)C(=O)O1)c1ccc(S(=O)(=O)N2CCOCC2)cc1` were, in that order, -8% and 0.94.
For the compound `CNc1nc(-c2c(C)nn(C)c2C)cc(C(C)(C)C)n1`, the “% Inhibition” value is given as -8% and the Z score turned out to be 1.35.
As to `COc1ccc(CC(=O)N2CCCN(c3nnc4cccc(C)n34)CC2)cc1`, the “% Inhibition” value is reported as -10% and the Z score was 0.96.
The matching figures for `CC(C)(Oc1ccc2c(c1)CCC2)C(=O)NC[C@]1(O)CCCNCC1`: -6% and 0.79.
The matching figures for `COc1ccc(CN2CCCN(C(=O)c3ccncc3)[C@H](c3nc(C)n[nH]3)C2)c(OC)c1`: -10% and 1.81.
Consider `COCCn1ccc(=O)c(OCC(=O)Nc2ccccn2)c1C`, for which the “% Inhibition” value was -1% and the Z score came out at 0.14.
The like results for `CCC(NC(=O)NC1CCCN(CCOC)C1)c1nccs1` (stereo unspecified) were, in that order, -2% and 0.43.
In the case of `Cn1ccnc1[C@@H](NC(=O)c1ccnn1C(F)F)C(C)(C)CO`, the “% Inhibition” value was 40% and the Z score is reported as -4.58.
Turning to `c1cnc(N2CCN(c3ccc(-c4nc(C5CC5)no4)cn3)CC2)cn1`, the “% Inhibition” value was -16% and the Z score worked out at 2.01.
The like results for `CC(C)c1cc(C(=O)N2CCC(CCC(=O)N(C)Cc3ccccc3)CC2)on1` were, in that order, 10% and -1.12.
`CCc1nnc(NC(=O)c2c(C)nn(C)c2C)s1`: the “% Inhibition” value is reported as -10% and the Z score is recorded as 1.55.
As to `COc1ccc(S(=O)(=O)N[C@H](C(=O)N2CC[C@@]3(O)CCCC[C@H]3C2)c2ccccc2)cc1`, the “% Inhibition” value is reported as -11% and the Z score is given as 1.43.
With `Cc1noc(-c2cn(C3CCN(C(=O)c4cccc(Br)c4)CC3)nn2)n1`, the “% Inhibition” value is on record as -6% and the Z score was 0.64.
The like results for `O=C(c1cscn1)N1CCC(F)(F)C1` were, in that order, 4% and -0.5.
The matching figures for `COc1ccc(C)cc1S(=O)(=O)[C@H]1CS(=O)(=O)C[C@@H]1NCc1ccc2c(c1)OCO2`: -1% and 0.18.
As to `CC[C@H]1CCN(C(=O)NC2CC(OC)(OC)C2)C1`, the “% Inhibition” value is -7% and the Z score came to 0.8.
The matching figures for `CCNC(=O)c1n[nH]c2c1CN(C(=O)c1cc(F)cc(F)c1)CC2`: 2% and -0.39.
With `CC(=O)N1CC[C@H](CN(C)c2ccc(Br)cc2C#N)C1`, the “% Inhibition” value is recorded as 0% and the Z score came out at 0.
The matching figures for `Cc1nc(CN(C)Cc2ccccc2O[C@@H](C)C(=O)O)cs1`: 5% and -0.99.
The like results for `O=C(Nc1ccc(N2CCN(C(=O)c3ccc(Cl)cc3Cl)CC2)nc1)c1ccc(F)cc1F` were, in that order, -16% and 2.95.
Take `CC(C)Oc1cccc2c1c(NC(=O)c1ccon1)nn2Cc1ccccc1`: the “% Inhibition” value is -13% and the Z score is 2.
The like results for `N#Cc1cccnc1N[C@H]1CCc2nnc(Cc3ccccc3)n2C1` were, in that order, -15% and 1.5.
The like results for `COc1ccc(-c2nn(-c3ccccc3C)cc2CNCc2ccc(C)o2)cc1F` were, in that order, 6% and -1.11.
The matching figures for `Cc1nn(CCC#N)c(C)c1[C@@H]1C=C[C@@H](NC(=O)NCc2ccccc2)C1`: 28% and -3.17.
For `Cc1ccc(CCC(=O)N2CCC(n3nnc4c3CCCC4)CC2)o1`, the “% Inhibition” value is -22% and the Z score is recorded as 1.83.
